In US5376635A, “Fluorine containing atrial natriuretic peptides” (Bio-Mega/Boehringer Ingelheim Research Inc., priority 1987, dated 1994):
Part of at least one peptide drawing is inferred or uncertain, most often the ends. Positions of bridges follow the written chain, without caps; N, C: chain ends. Non-standard residues stand in square brackets, D forms with d. Residues, ends and D or L forms follow the SMILES beside them. Phe(4-CF3) = N[C@@H](Cc1ccc(C(F)(F)F)cc1)C(=O)O; Phe(3-F) = N[C@@H](Cc1cccc(F)c1)C(=O)O; Phe(4-F) = N[C@@H](Cc1ccc(F)cc1)C(=O)O; Phe(2-F) = N[C@@H](Cc1ccccc1F)C(=O)O; Mpa = O=C(O)CCS

Tests used:
rabbit aorta = assay: Rabbit aorta assay (vasorelaxant activity, phenylephrine-contracted aortic rings); details: for Relative potency: obtained by comparing median effective concentrations (EC50's); for Relative duration: time from onset to 50% recovery at EC50
[1] = tested on: conscious normotensive rat; assay: Diuretic assay in the conscious normotensive rat; assay type: in vivo; details: for Electrolyte excretion Cl-, Control / Electrolyte excretion K+, Control / Electrolyte excretion Na+, Control / Urine volume, Control: control period before infusion; for Urine volume, Control / Urine volume, Treated: average of 3 consecutive collections
[2] = i.v. infusion 0.5 μg/kg/min over 30 min
[3] = i.v. infusion 0.3 μg/kg/min over 30 min

| Structure (SMILES) | Relative potency (rabbit aorta; relative to hANP(99-126) = 1) | Relative duration (rabbit aorta; relative to hANP(99-126) = 1) | Electrolyte excretion Cl-, Control ([1]; group dosed 0.5 μg/kg/min) | Electrolyte excretion K+, Control ([1]; group dosed 0.5 μg/kg/min) | Electrolyte excretion Na+, Control ([1]; group dosed 0.5 μg/kg/min) | Urine volume, Control ([1]; group dosed 0.5 μg/kg/min) | Electrolyte excretion Cl-, Treated [1, 2] | Electrolyte excretion K+, Treated [1, 2] | Electrolyte excretion Na+, Treated [1, 2] | Urine volume, Treated [1, 2] | Electrolyte excretion Cl-, Control ([1]; group dosed 0.3 μg/kg/min) | Electrolyte excretion K+, Control ([1]; group dosed 0.3 μg/kg/min) | Electrolyte excretion Na+, Control ([1]; group dosed 0.3 μg/kg/min) | Urine volume, Control ([1]; group dosed 0.3 μg/kg/min) | Electrolyte excretion Cl-, Treated [1, 3] | Electrolyte excretion K+, Treated [1, 3] | Electrolyte excretion Na+, Treated [1, 3] | Urine volume, Treated [1, 3] | Relative potency (rabbit aorta; relative to rANP(103-126) = 1) | Relative duration (rabbit aorta; relative to rANP(103-126) = 1) |
| --- | --- | --- | --- | --- | --- | --- | --- | --- | --- | --- | --- | --- | --- | --- | --- | --- | --- | --- | --- | --- |
| CC[C@H](C)[C@@H]1NC(=O)[C@H](CCCNC(=N)N)NC(=O)[C@H](CC(=O)O)NC(=O)[C@H]([C@@H](C)CC)NC(=O)[C@H](CCCNC(=N)N)NC(=O)CNC(=O)CNC(=O)[C@H](Cc2cccc(F)c2)NC(=O)[C@@H](NC(=O)[C@H](CO)NC(=O)[C@@H](N)CO)CSSC[C@@H](C(=O)N[C@@H](CC(N)=O)C(=O)N[C@@H](CO)C(=O)N[C@@H](Cc2ccccc2)C(=O)N[C@@H](CCCNC(=N)N)C(=O)O)NC(=O)CNC(=O)[C@H](CC(C)C)NC(=O)CNC(=O)[C@H](CO)NC(=O)[C@H](CCC(N)=O)NC(=O)[C@H](C)NC(=O)CNC1=O [(3FPhe^106) rANP (103-125), (3FPhe^106)rANP(103-125)] (H-SSC[Phe(3-F)]GGRIDRIGAQSGLGCNSFR-OH; disulfide 3-19) | 0.09 | 0.25 | 39.7 μmol/10 minute collection peri | 36.3 μmol/10 minute collection peri | 14.0 μmol/10 minute collection peri | 0.51 ml/10 minute collection period | 117.0 μmol/10 minute collection peri | 60.0 μmol/10 minute collection peri | 73.7 μmol/10 minute collection peri | 1.34 ml/10 minute collection period |  |  |  |  |  |  |  |  |  |  |
| CC[C@H](C)[C@@H]1NC(=O)[C@H](CCCNC(=N)N)NC(=O)[C@H](CC(=O)O)NC(=O)[C@H]([C@@H](C)CC)NC(=O)[C@H](CCCNC(=N)N)NC(=O)CNC(=O)CNC(=O)[C@H](Cc2ccc(C(F)(F)F)cc2)NC(=O)[C@@H](NC(=O)[C@H](CO)NC(=O)[C@@H](N)CO)CSSC[C@@H](C(=O)N[C@@H](CC(N)=O)C(=O)N[C@@H](CO)C(=O)N[C@@H](Cc2ccccc2)C(=O)N[C@@H](CCCNC(=N)N)C(=O)O)NC(=O)CNC(=O)[C@H](CC(C)C)NC(=O)CNC(=O)[C@H](CO)NC(=O)[C@H](CCC(N)=O)NC(=O)[C@H](C)NC(=O)CNC1=O [(4CF3 Phe^106) rANP (103-125), (4CF3 Phe^106)rANP(103-125)] (H-SSC[Phe(4-CF3)]GGRIDRIGAQSGLGCNSFR-OH; disulfide 3-19) | 0.45 | 0.35 | 30.3 μmol/10 minute collection peri | 31.0 μmol/10 minute collection peri | 13.0 μmol/10 minute collection peri | 0.60 ml/10 minute collection period | 101.7 μmol/10 minute collection peri | 55.3 μmol/10 minute collection peri | 55.7 μmol/10 minute collection peri | 1.16 ml/10 minute collection period |  |  |  |  |  |  |  |  |  |  |
| CC[C@H](C)[C@@H]1NC(=O)[C@H](CCCNC(=N)N)NC(=O)[C@H](CC(=O)O)NC(=O)[C@H]([C@@H](C)CC)NC(=O)[C@H](CCCNC(=N)N)NC(=O)CNC(=O)CNC(=O)[C@H](Cc2ccc(F)cc2)NC(=O)[C@@H](NC(=O)[C@H](CO)NC(=O)[C@@H](N)CO)CSSC[C@@H](C(=O)N[C@@H](CC(N)=O)C(=O)N[C@@H](CO)C(=O)N[C@@H](Cc2ccccc2)C(=O)N[C@@H](CCCNC(=N)N)C(=O)O)NC(=O)CNC(=O)[C@H](CC(C)C)NC(=O)CNC(=O)[C@H](CO)NC(=O)[C@H](CCC(N)=O)NC(=O)[C@H](C)NC(=O)CNC1=O [(4FPhe^106) rANP (103-125), (4FPhe^106)rANP(103-125)] (H-SSC[Phe(4-F)]GGRIDRIGAQSGLGCNSFR-OH; disulfide 3-19) | 0.48 | 0.3 | 32.9 μmol/10 minute collection peri | 31.6 μmol/10 minute collection peri | 11.9 μmol/10 minute collection peri | 0.42 ml/10 minute collection period | 157.0 μmol/10 minute collection peri | 61.0 μmol/10 minute collection peri | 105.4 μmol/10 minute collection peri | 1.37 ml/10 minute collection period | 30.0 μmol/10 minute collection peri | 34.7 μmol/10 minute collection peri | 8.7 μmol/10 minute collection peri | 0.46 ml/10 minute collection period | 105.7 μmol/10 minute collection peri | 54.0 μmol/10 minute collection peri | 63.7 μmol/10 minute collection peri | 1.06 ml/10 minute collection period |  |  |
| CC[C@H](C)[C@@H]1NC(=O)[C@H](CCCNC(=N)N)NC(=O)[C@H](CC(=O)O)NC(=O)[C@H]([C@@H](C)CC)NC(=O)[C@H](CCCNC(=N)N)NC(=O)CNC(=O)CNC(=O)[C@H](Cc2ccc(F)cc2)NC(=O)CCSSC[C@@H](C(=O)N[C@@H](CC(N)=O)C(=O)N[C@@H](CO)C(=O)N[C@@H](Cc2ccccc2)C(=O)N[C@@H](CCCNC(=N)N)C(=O)N[C@@H](Cc2ccc(O)cc2)C(=O)O)NC(=O)CNC(=O)[C@H](CC(C)C)NC(=O)CNC(=O)[C@H](CO)NC(=O)[C@H](CCC(N)=O)NC(=O)[C@H](C)NC(=O)CNC1=O [(Mpr^105,4FPhe^106) rANP (105-126), (SCH2 CH2 CO^105,4FPhe^106)rANP(105-126)] ([Mpa][Phe(4-F)]GGRIDRIGAQSGLGCNSFRY-OH; disulfide 1-17) |  |  |  |  |  |  |  |  |  |  |  |  |  |  |  |  |  |  | 0.8-1.2 | 1.2-1.5 |
| CC[C@H](C)[C@@H]1NC(=O)[C@H](CCCNC(=N)N)NC(=O)[C@H](CC(=O)O)NC(=O)[C@H]([C@@H](C)CC)NC(=O)[C@H](CCCNC(=N)N)NC(=O)CNC(=O)CNC(=O)[C@H](Cc2ccccc2F)NC(=O)CCSSC[C@@H](C(=O)N[C@@H](CC(N)=O)C(=O)N[C@@H](CO)C(=O)N[C@@H](Cc2ccccc2)C(=O)N[C@@H](CCCNC(=N)N)C(=O)N[C@@H](Cc2ccc(O)cc2)C(=O)O)NC(=O)CNC(=O)[C@H](CC(C)C)NC(=O)CNC(=O)[C@H](CO)NC(=O)[C@H](CCC(N)=O)NC(=O)[C@H](C)NC(=O)CNC1=O [(Mpr^105, 2FPhe^106) rANP (105-126), (SCH2 CH2 CO^105,2FPhe^106)rANP(105-126)] ([Mpa][Phe(2-F)]GGRIDRIGAQSGLGCNSFRY-OH; disulfide 1-17) |  |  |  |  |  |  |  |  |  |  |  |  |  |  |  |  |  |  | 1.4 | 1.1 |
| CC[C@H](C)[C@@H]1NC(=O)[C@H](CCCNC(=N)N)NC(=O)[C@H](CC(=O)O)NC(=O)[C@H]([C@@H](C)CC)NC(=O)[C@H](CCCNC(=N)N)NC(=O)CNC(=O)CNC(=O)[C@H](Cc2ccccc2)NC(=O)[C@@H](NC(=O)[C@H](CO)NC(=O)[C@@H](N)CO)CSSC[C@@H](C(=O)N[C@@H](CC(N)=O)C(=O)N[C@@H](CO)C(=O)N[C@@H](Cc2ccccc2)C(=O)N[C@@H](CCCNC(=N)N)C(=O)N[C@@H](Cc2ccc(O)cc2)C(=O)O)NC(=O)CNC(=O)[C@H](CC(C)C)NC(=O)CNC(=O)[C@H](CO)NC(=O)[C@H](CCC(N)=O)NC(=O)[C@H](C)NC(=O)CNC1=O [rANP (103-126), rANP(103-126), reference compound] (H-SSCFGGRIDRIGAQSGLGCNSFRY-OH; disulfide 3-19) |  |  |  |  |  |  |  |  |  |  |  |  |  |  |  |  |  |  | 1. | 1. |
